# Data: the supplement of paper PMC8728848
# The other results are listed elsewhere or left out.
# How the values were obtained:
# Assay in all cases: glycan array binding signal (z-score within array); higher = stronger binding
# Details in all cases: glycan notation: IUPAC condensed, linker removed
# [1] = target: Fuc(a1-3)[Gal3S(b1-4)]GlcNAc
# In short: (§1)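 Glycan array binding is given as a within-array Z-score, which can be read as non-binding when negative. The arrays, 3228 of them, came from the Consortium for Functional Glycomics database and were retained only where the protein sequence was available. Z-scores were averaged across arrays of the same protein sequence at different concentrations or buffers and across linkers.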
# [2] = target: Fuc(a1-3)[Gal3S(b1-4)]GlcNAc6S
# In short: as §1
# [3] = target: Fuc(a1-3)[GalNAc(b1-4)]GlcNAc
# In short: as §1
# [4] = target: Fuc(a1-3)[GalNAc(b1-4)]GlcNAc6S
# In short: as §1
# Fuc(a1-4)GlcNAc = target: Fuc(a1-4)GlcNAc
# In short: as §1
# Fuc(b1-3)GlcNAc = target: Fuc(b1-3)GlcNAc
# In short: as §1
# Gal(a1-2)Gal = target: Gal(a1-2)Gal
# In short: as §1
# Gal(a1-3)Gal = target: Gal(a1-3)Gal
# In short: as §1
# Gal(a1-3)Gal(b1-3)GlcNAc = target: Gal(a1-3)Gal(b1-3)GlcNAc
# In short: as §1
# [5] = target: Gal(a1-3)Gal(b1-3)GlcNAc(b1-2)Man
# In short: as §1
# [6] = target: Gal(a1-3)Gal(b1-3)GlcNAc(b1-2)Man(a1-3)[Gal(a1-3)Gal(b1-3)GlcNAc(b1-2)Man(a1-6)]Man(b1-4)GlcNAc(b1-4)GlcNAc
# In short: as §1
# [7] = target: Gal(a1-3)Gal(b1-3)GlcNAc(b1-3)GalNAc
# In short: as §1
# [8] = target: Gal(a1-3)Gal(b1-3)GlcNAc(b1-6)GalNAc
# In short: as §1
# [9] = target: Gal(a1-3)Gal(b1-3)[Fuc(a1-4)]GlcNAc(b1-2)Man(a1-3)[Gal(a1-3)Gal(b1-3)[Fuc(a1-4)]GlcNAc(b1-2)Man(a1-6)]Man(b1-4)GlcNAc(b1-4)GlcNAc
# In short: as §1
# Gal(a1-3)Gal(b1-4)Glc = target: Gal(a1-3)Gal(b1-4)Glc
# In short: as §1
# Gal(a1-3)Gal(b1-4)GlcNAc = target: Gal(a1-3)Gal(b1-4)GlcNAc
# In short: as §1
# [10] = target: Gal(a1-3)Gal(b1-4)GlcNAc(b1-2)Man
# In short: as §1
# [11] = target: Gal(a1-3)Gal(b1-4)GlcNAc(b1-2)Man(a1-3)[Gal(a1-3)Gal(b1-4)GlcNAc(b1-2)Man(a1-6)]Man(b1-4)GlcNAc(b1-4)GlcNAc
# In short: as §1
# [12] = target: Gal(a1-3)Gal(b1-4)GlcNAc(b1-3)GalNAc
# In short: as §1
# [13] = target: Gal(a1-3)Gal(b1-4)GlcNAc(b1-6)GalNAc
# In short: as §1
# [14] = target: Gal(a1-3)Gal(b1-4)[Fuc(a1-3)]GlcNAc
# In short: as §1
# [15] = target: Gal(a1-3)Gal(b1-4)[Fuc(a1-3)]GlcNAc(b1-2)Man(a1-3)[Gal(a1-3)Gal(b1-4)[Fuc(a1-3)]GlcNAc(b1-2)Man(a1-6)]Man(b1-4)GlcNAc(b1-4)GlcNAc
# In short: as §1
# Gal(a1-3)GalNAc = target: Gal(a1-3)GalNAc
# In short: as §1
# [16] = target: Gal(a1-3)[Gal(a1-4)]Gal(b1-4)GlcNAc
# In short: as §1
# [17] = target: Gal(a1-4)Gal(b1-3)GlcNAc(b1-2)Man(a1-3)[Gal(a1-4)Gal(b1-3)GlcNAc(b1-2)Man(a1-6)]Man(b1-4)GlcNAc(b1-4)GlcNAc
# In short: as §1
# Gal(a1-4)Gal(b1-4)Glc = target: Gal(a1-4)Gal(b1-4)Glc
# In short: as §1
# Gal(a1-4)Gal(b1-4)GlcNAc = target: Gal(a1-4)Gal(b1-4)GlcNAc
# In short: as §1
# [18] = target: Gal(a1-4)Gal(b1-4)GlcNAc(b1-2)Man(a1-3)[Gal(a1-4)Gal(b1-4)GlcNAc(b1-2)Man(a1-6)]Man(b1-4)GlcNAc(b1-4)GlcNAc
# In short: as §1
# [19] = target: Gal(a1-4)Gal(b1-4)GlcNAc(b1-3)Gal(b1-4)Glc
# In short: as §1
# Gal(a1-4)GlcNAc = target: Gal(a1-4)GlcNAc
# In short: as §1
# Gal(a1-6)Glc = target: Gal(a1-6)Glc
# In short: as §1
# Gal(b1-2)Gal = target: Gal(b1-2)Gal
# In short: as §1
# Gal(b1-3)Gal = target: Gal(b1-3)Gal
# In short: as §1
# Gal(b1-3)Gal(b1-4)GlcNAc = target: Gal(b1-3)Gal(b1-4)GlcNAc
# In short: as §1
# Gal(b1-3)GalNAc = target: Gal(b1-3)GalNAc
# In short: as §1
# [20] = target: Gal(b1-3)GalNAc(a1-3)[Fuc(a1-2)]Gal(b1-4)Glc
# In short: as §1
# [21] = target: Gal(b1-3)GalNAc(a1-3)[Fuc(a1-2)]Gal(b1-4)GlcNAc
# In short: as §1
# Gal(b1-3)GalNAc(b1-3)Gal = target: Gal(b1-3)GalNAc(b1-3)Gal
# In short: as §1
# [22] = target: Gal(b1-3)GalNAc(b1-3)Gal(a1-4)Gal(b1-4)Glc
# In short: as §1
# [23] = target: Gal(b1-3)GalNAc(b1-4)Gal(b1-4)Glc
# In short: as §1
# [24] = target: Gal(b1-3)GalNAc(b1-4)[Neu5Ac(a2-3)]Gal(b1-4)Glc
# In short: as §1
# Gal(b1-3)GlcNAc = target: Gal(b1-3)GlcNAc
# In short: as §1
# [25] = target: Gal(b1-3)GlcNAc(a1-3)Gal(b1-4)GlcNAc
# In short: as §1
# [26] = target: Gal(b1-3)GlcNAc(a1-6)Gal(b1-4)GlcNAc
# In short: as §1
# Gal(b1-3)GlcNAc(b1-2)Man = target: Gal(b1-3)GlcNAc(b1-2)Man
# In short: as §1
binder,measurement,setting,value
"LICBM33A (Lactococcus lactis), Q9CE94 (protein) MKKLLTGLLVAAGLLSVSLLIKTDTVSAHGYVQSPPARGYQGQLDSQSLGWTAAFNIYGNVISNPQSLEAPKGFPECGPADGRIASANGGLGQIGDFVLDNQTSSRWKKTSISTGSNIFTWKYTAPHKTTKWHYYMTKTGWDQNAPLKHSELELIGTINHDGSPATNNLSHTINIPTDRSGYHIVLAVWDVADTSNAFYNVIDINVNNKNASSQVFGPFL",glycan array binding signal (z-score),[1],-0.361
same,glycan array binding signal (z-score),[2],0.112
same,glycan array binding signal (z-score),[3],0.22
same,glycan array binding signal (z-score),[4],-0.147
same,glycan array binding signal (z-score),Fuc(a1-4)GlcNAc,-0.206
same,glycan array binding signal (z-score),Fuc(b1-3)GlcNAc,0.586
same,glycan array binding signal (z-score),Gal(a1-2)Gal,-0.28
same,glycan array binding signal (z-score),Gal(a1-3)Gal,-0.484
same,glycan array binding signal (z-score),Gal(a1-3)Gal(b1-3)GlcNAc,-0.414
same,glycan array binding signal (z-score),[5],-0.173
same,glycan array binding signal (z-score),[6],0.134
same,glycan array binding signal (z-score),[7],0.936
same,glycan array binding signal (z-score),[8],-0.563
same,glycan array binding signal (z-score),[9],-0.268
same,glycan array binding signal (z-score),Gal(a1-3)Gal(b1-4)Glc,-0.696
same,glycan array binding signal (z-score),Gal(a1-3)Gal(b1-4)GlcNAc,-0.436
same,glycan array binding signal (z-score),[10],-0.464
same,glycan array binding signal (z-score),[11],0.758
same,glycan array binding signal (z-score),[12],2.06
same,glycan array binding signal (z-score),[13],-0.656
same,glycan array binding signal (z-score),[14],-0.288
same,glycan array binding signal (z-score),[15],-0.371
same,glycan array binding signal (z-score),Gal(a1-3)GalNAc,-0.228
same,glycan array binding signal (z-score),[16],-0.13
same,glycan array binding signal (z-score),[17],-0.616
same,glycan array binding signal (z-score),Gal(a1-4)Gal(b1-4)Glc,1.58
same,glycan array binding signal (z-score),Gal(a1-4)Gal(b1-4)GlcNAc,0.111
same,glycan array binding signal (z-score),[18],-0.297
same,glycan array binding signal (z-score),[19],0.203
same,glycan array binding signal (z-score),Gal(a1-4)GlcNAc,-0.297
same,glycan array binding signal (z-score),Gal(a1-6)Glc,-0.259
same,glycan array binding signal (z-score),Gal(b1-2)Gal,-1.96
same,glycan array binding signal (z-score),Gal(b1-3)Gal,0.193
same,glycan array binding signal (z-score),Gal(b1-3)Gal(b1-4)GlcNAc,-0.142
same,glycan array binding signal (z-score),Gal(b1-3)GalNAc,-0.376
same,glycan array binding signal (z-score),[20],-0.262
same,glycan array binding signal (z-score),[21],-0.156
same,glycan array binding signal (z-score),Gal(b1-3)GalNAc(b1-3)Gal,-0.716
same,glycan array binding signal (z-score),[22],0.5
same,glycan array binding signal (z-score),[23],0.1
same,glycan array binding signal (z-score),[24],-0.354
same,glycan array binding signal (z-score),Gal(b1-3)GlcNAc,-0.469
same,glycan array binding signal (z-score),[25],-0.723
same,glycan array binding signal (z-score),[26],0.467
same,glycan array binding signal (z-score),Gal(b1-3)GlcNAc(b1-2)Man,-0.136
